Assay results reported in article PMC11911400, “Mechanism of ASF1 engagement by CDAN1” (Nature Communications, 2025).
These are yes or no findings as the source states them, for the method shown. In cells and extracts the contact can be indirect. Some results given as binding are weak or reduced against the parent protein; the word gives no strength.

What was measured:
[1] = molecular target: T1, Strep-CDAN1 HMHA1* HMHA2* (both H3 mimic helices mutated) (human) (UniProt Q8IWY9); test: pull-down; Strep-Tactin pulldown of transiently transfected ST-CDAN1 variants from Flp-In 293 T-REx lysates; endogenous ASF1A, ASF1B and CDIN1 detected by immunoblotting; IP buffer with 1% Triton X-100, 1 hr at 4 °C
T1 sequence: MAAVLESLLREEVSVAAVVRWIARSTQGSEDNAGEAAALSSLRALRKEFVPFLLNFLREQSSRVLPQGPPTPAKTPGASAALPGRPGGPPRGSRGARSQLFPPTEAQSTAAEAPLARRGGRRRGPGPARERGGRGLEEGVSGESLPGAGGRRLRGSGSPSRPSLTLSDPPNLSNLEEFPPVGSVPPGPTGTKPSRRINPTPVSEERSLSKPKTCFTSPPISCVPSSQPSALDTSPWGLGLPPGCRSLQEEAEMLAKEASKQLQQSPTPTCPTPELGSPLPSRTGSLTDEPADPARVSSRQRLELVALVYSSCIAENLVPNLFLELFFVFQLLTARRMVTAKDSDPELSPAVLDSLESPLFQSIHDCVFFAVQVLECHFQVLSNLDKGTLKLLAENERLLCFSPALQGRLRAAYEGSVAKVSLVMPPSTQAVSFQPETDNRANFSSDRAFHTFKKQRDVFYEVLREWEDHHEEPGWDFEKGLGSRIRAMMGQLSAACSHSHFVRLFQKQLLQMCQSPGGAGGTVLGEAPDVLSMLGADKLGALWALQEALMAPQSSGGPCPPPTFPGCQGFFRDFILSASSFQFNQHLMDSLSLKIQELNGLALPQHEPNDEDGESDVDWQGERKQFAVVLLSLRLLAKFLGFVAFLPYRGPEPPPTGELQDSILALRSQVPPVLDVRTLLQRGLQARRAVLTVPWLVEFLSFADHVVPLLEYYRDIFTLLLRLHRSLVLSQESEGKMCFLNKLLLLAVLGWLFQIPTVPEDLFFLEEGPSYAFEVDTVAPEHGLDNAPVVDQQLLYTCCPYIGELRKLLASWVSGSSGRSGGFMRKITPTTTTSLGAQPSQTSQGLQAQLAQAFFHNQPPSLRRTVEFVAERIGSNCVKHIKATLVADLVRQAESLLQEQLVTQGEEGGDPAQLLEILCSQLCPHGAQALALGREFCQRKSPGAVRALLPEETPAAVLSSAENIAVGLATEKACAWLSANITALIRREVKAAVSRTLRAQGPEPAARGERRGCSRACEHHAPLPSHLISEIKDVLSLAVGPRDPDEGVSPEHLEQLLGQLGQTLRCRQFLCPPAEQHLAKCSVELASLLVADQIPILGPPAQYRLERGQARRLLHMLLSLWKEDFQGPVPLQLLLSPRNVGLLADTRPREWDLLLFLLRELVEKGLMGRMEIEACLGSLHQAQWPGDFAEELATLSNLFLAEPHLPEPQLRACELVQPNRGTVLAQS

[2] = molecular target: T2, Strep-CDAN1 HMHA1* BDA2* (human) (UniProt Q8IWY9); test: as above
T2 sequence: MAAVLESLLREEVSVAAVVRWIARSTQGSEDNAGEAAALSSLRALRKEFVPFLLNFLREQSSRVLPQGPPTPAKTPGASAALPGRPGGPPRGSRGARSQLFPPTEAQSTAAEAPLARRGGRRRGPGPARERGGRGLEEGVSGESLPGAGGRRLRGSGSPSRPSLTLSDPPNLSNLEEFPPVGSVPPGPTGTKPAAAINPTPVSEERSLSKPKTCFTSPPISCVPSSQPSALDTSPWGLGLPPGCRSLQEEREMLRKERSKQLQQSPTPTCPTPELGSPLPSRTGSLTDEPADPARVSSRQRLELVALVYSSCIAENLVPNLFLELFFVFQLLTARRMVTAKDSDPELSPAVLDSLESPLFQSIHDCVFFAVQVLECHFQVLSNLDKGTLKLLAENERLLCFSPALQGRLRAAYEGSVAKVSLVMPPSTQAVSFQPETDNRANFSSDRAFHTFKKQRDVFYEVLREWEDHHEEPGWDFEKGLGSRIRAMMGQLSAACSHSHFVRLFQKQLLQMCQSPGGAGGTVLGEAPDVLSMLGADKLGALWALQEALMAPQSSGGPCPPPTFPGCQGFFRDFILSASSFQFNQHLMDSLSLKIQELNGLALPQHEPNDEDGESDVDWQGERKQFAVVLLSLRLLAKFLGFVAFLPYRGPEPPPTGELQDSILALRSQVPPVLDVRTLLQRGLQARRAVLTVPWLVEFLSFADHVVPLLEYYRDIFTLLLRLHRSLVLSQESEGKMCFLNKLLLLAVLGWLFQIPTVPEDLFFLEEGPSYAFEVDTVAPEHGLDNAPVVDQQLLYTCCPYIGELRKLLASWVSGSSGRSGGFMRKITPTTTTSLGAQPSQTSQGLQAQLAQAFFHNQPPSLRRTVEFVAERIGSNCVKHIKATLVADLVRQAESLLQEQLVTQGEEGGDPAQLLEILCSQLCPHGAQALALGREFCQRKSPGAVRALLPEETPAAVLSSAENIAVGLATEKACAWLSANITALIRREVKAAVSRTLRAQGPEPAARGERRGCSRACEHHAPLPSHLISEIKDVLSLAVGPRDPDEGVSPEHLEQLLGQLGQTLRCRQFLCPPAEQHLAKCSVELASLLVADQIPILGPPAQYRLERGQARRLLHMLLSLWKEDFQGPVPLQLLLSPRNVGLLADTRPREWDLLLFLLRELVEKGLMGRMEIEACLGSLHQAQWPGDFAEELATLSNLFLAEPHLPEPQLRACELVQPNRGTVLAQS

binding [1]: binds
binding [2]: binds
B1: FLAG-tagged CDIN1 (F-CDIN1) (natural protein, UniProt Q9Y2V0 1-281, looked up)
chain: MILTKAQYDEIAQCLVSVPPTRQSLRKLKQRFPSQSQATLLSIFSQEYQKHIKRTHAKHHTSEAIESYYQRYLNGVVKNGAAPVLLDLANEVDYAPSLMARLILERFLQEHEETPPSKSIINSMLRDPSQIPDGVLANQVYQCIVNDCCYGPLVDCIKHAIGHEHEVLLRDLLLEKNLSFLDEDQLRAKGYDKTPDFILQVPVAVEGHIIHWIESKASFGDECSHHAYLHDQFWSYWNRFGPGLVIYWYGFIQELDCNRERGILLKACFPTNIVTLCHSIA
notes: C15orf41); cDNA synthesized by IDT; source: Expi293, transiently transfected, in lysate and purified in complexes (anti-FLAG, Strep-Tactin); not shown: 3xFLAG, N-terminal, kept
